Data from PubChem BioAssay AID493208 (National Center for Advancing Translational Sciences (NCATS), 2011).
About 340 (0.77%) of roughly 44,000 compounds were called active. Inconclusive results (about 5%) are left out. The call rests on the fitted dose curve; in most records, active means well fitted inhibition curve with a large enough effect; inconclusive means small, poorly fitted or top-dose-only effect; inactive means flat fitted curve, though single readings scatter. Some of the results follow.

experiment: Acumen qHTS Assay for Inhibitors of the mTORC1 Signaling Pathway in MEF (Tsc2-/-, p53-/-) Cells: Sytravon; conditions: phospho-rpS6 immunofluorescence/PI, 24 h; series mostly up to 38.3 µM; activity change, negative = inhibition: at the top concentration;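 further: plate controls were DMSO for no effect and rapamycin for full effect; nearly all actives have a fitted effect of over 50% in size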
Summary of the method: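 Read-out: phospho-S6 Alexa-488 intensity over PI intensity per well, scored as % active cells using thresholds from rapamycin (7.5 nM) and DMSO controls. Tsc2-/-, p53-/- MEFs exposed to compound for 24 h; PI cell count recorded as viability.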

Activity change, negative = inhibition, inactive:
COCCn1c(SCc2ccccc2F)nc2c([nH]c3ccccc32)c1=O -6.48%, Cc1ccc(NS(=O)(=O)c2cn(C)c(C)n2)c(Br)c1 -4.42%, COc1ccc(CNC(=O)C2CCN(S(=O)(=O)N3CCC(C)CC3)CC2)c(OC)c1 1.59%, COc1cc(CN(C(=O)c2ccc(C)cc2)C2CCS(=O)(=O)C2)cc(OC)c1OC (stereo unspecified) 0.628%, Cc1cccc(CNC(=O)c2ccc(Cn3c(SCc4cccc(F)c4)nc4cccnc43)cc2)c1 0%, COc1ccc(NC(=O)CCn2cnnn2)cc1 -4.44%, COc1cccc(NC(=O)C2CC(=O)N(c3ccc(Br)cc3)C2)c1 (stereo unspecified) 11.9%, Cc1ccccc1OCc1nnc(SCc2cc(=O)c3cc(F)ccc3[nH]2)n1C 0.566%, Cc1ccc2c(c1)c1c(c(=O)n(Cc3ccccc3)c(=O)n1Cc1cccc(F)c1)n2C -6.49%, N#C/C(=C\c1cccc(F)c1)c1nc(-c2cc3ccccc3oc2=O)cs1 1.23%, CCC1CN(CC(=O)NCc2cccc(Br)c2)c2ccccc2S1 (stereo unspecified) -17%, Cc1ccc(S(=O)(=O)c2cn(CC(=O)Nc3ccc4c(c3)OCO4)c3ccc(C)cc3c2=O)cc1 -9.95%, COc1ccc(-c2nc3ccccc3o2)cc1NC(=O)c1cc([N+](=O)[O-])ccc1N1CCOCC1 -6.61%, COc1ccc(-c2ccc(CCC(=O)O)n2-c2ccccc2C(F)(F)F)cc1 -4.32%, CCc1nnc(SCC(=O)Nc2ccc(OC)c(OC)c2)c2cc3occc3n12 0.19%, CCc1ccc(N2CC(C)Cn3c2nc2c3c(=O)n(CC(=O)O)c(=O)n2C)cc1 (stereo unspecified) -0.416%, CCOc1ccc(-c2cc(C)n3nc(C(=O)Nc4ccc(C)c(C)c4)cc3n2)cc1 -18.3%, COC(=O)Cc1c(C)nc2nc(NCc3ccc(Br)cc3)[nH]n2c1=O -0.744%, CCOC(=O)CN(Cc1ccccc1)C(C(=O)NC1CCCCC1)c1ccccc1 (stereo unspecified) -14.9%, Cc1cccc(C)c1NS(=O)(=O)c1ccc(NS(=O)(=O)c2ccc3c(c2)OCCO3)cc1 -5.1%, O=C(Nc1noc2ccccc12)c1ccc(F)cc1 2.55%, CCOC(=O)c1ccc(NC(=O)C2(S(=O)(=O)c3ccc(Cl)cc3)CC2)cc1 -17.6%, COc1ccc(CNC(=O)c2cc(=O)c3cc(C)ccc3o2)cc1 -11.9%, C=Cc1ccc(COc2ccc3oc(-c4ccccc4)c(C(=O)OCC)c3c2)cc1 -9.07%, COc1cccc(CNC(=O)CSC2=Nc3ccccc3C3=NC(C(C)C)C(=O)N23)c1 (stereo unspecified) 4.23%, Cc1ccccc1NC(=O)CCC(=O)N1CC(C)Sc2ccccc21 (stereo unspecified) 0%, Cc1cccc(N2CCN(C(=O)CCS(=O)(=O)c3ccc4c(c3)oc(=O)n4C)CC2)c1C -2.71%, CCOC(=O)COc1ccc([N+](=O)[O-])cc1-c1ccnc2cc(-c3ccc(C)cc3)nn12 -7.34%, Cc1ccc(C)c(N2CCN(CCCNC(=O)c3ccc4nc(N5CCCCC5)sc4c3)CC2)c1 0.128%, Cc1ccc(-c2nnc(Nc3ccccc3)c3ccccc23)cc1S(=O)(=O)NCc1nc2ccccc2[nH]1 -25.7%, COc1ccc(C(=O)N(c2ccc(OC)cc2)S(=O)(=O)c2ccc3c(c2)n(C)c(=O)n3C)cc1 5.32%, COc1ccccc1C(=O)Nc1cccc(C(=O)OCc2cc(=O)n3nc(C)sc3n2)c1 0%, Cc1c(Cl)cccc1NC(=O)Cn1nnc2sc3c(c2c1=O)CCCC3 0.0252%, O=C(c1cc2ccc3cccnc3c2[nH]1)N1CCN(c2ccc(Cl)cc2)CC1 2.18%, O=C(Nc1cccc(Cl)c1Cl)c1cc(S(=O)(=O)NCCc2ccccc2)ccc1F 9.48%, NC(=O)CSc1ncc2c(n1)-c1ccccc1N(Cc1ccc(Cl)cc1)S2(=O)=O 5.73%, O=C(CN1C(=O)C2(SCC(=O)N2c2ccccc2)c2ccccc21)NCc1ccccc1 (stereo unspecified) 1.51%, Cc1nn(CC(=O)Nc2cc(F)ccc2F)c(=O)c2cccn12 -16.6%, CC(C)(C)c1ccccc1NC(=O)CSc1nc(-c2cccs2)cc(C(F)(F)F)n1 -13.2%, Cc1cc(Nc2ccc(Cl)cc2C)nc(-n2nc(C)cc2C)n1 0%, CC(C)c1noc(-c2ccccc2OCC(=O)Nc2ccccc2[N+](=O)[O-])n1 -4.63%, O=C(NCc1ccc2c(c1)CCN2C(=O)c1ccc(F)cc1)c1ccco1 -2.71%, Cc1c(CNC2CCCCC2)c(C(=O)O)c(C)n1Cc1ccc(F)cc1 -4.48%, CCOc1ccc(C(=O)Nc2ccc(-n3nncc3-c3ccccc3)cc2)cc1OCC 6.7%, CCC(=O)Nc1ccc2nc3c(=O)n(C)c(=O)n(C)c3nc2c1 2.39%, CCC(NC(=O)Nc1cc(OC)ccc1OC)c1c(-n2cccc2)sc2c1CCN(CC)C2 (stereo unspecified) -3.85%, CCN(C(=O)c1cc2c(=O)n3cccc(C)c3nc2s1)c1ccc(C)c(C)c1 -26.2%, COc1cccc(CNC(=O)C2(c3cccs3)CCOCC2)c1 3.01%, Cc1oc2ccc(O)c(CN3CCN(C)CC3)c2c1C(=O)Nc1cccc(C(F)(F)F)c1 -7.3%, CCOC(=O)c1c(NC(=O)CSc2cn(CCNC(=O)c3ccccc3OC)c3ccccc23)sc2c1CCC2 -5.78%, CC(C)c1nc2n(n1)C1(CCCCC1)[C@@H]1CCCC[C@@H]1N2 0%, CCOc1ccc(-n2c(CC)nc3c(cnn3-c3ccc(Cl)cc3)c2=O)cc1 -6.83%, COc1ccc(-c2nc3c4ccccc4n(CC(=O)N4CCN(c5ccc(F)cc5)CC4)c(=O)n3n2)cc1 0.137%, Cc1cccc(Cn2c(C)c(CNC3CCCCCC3)c(C(=O)O)c2C)c1 -1.19%, COc1c(Cl)cc(C(=O)N(Cc2ccc(C)o2)C2CCS(=O)(=O)C2)cc1Cl (stereo unspecified) -0.536%, Cc1oc(-c2cccc(Cl)c2)nc1CN1CCCC(C(=O)N2CCN(c3ccc(F)cc3)CC2)C1 (stereo unspecified) -1.74%, CCCNC(=O)C(CC)n1nc(CC)n2c(cc3oc(C)cc32)c1=O (stereo unspecified) -3.09%, COc1cccc(C(=O)c2cn(CC(=O)NCCc3ccccc3)c3nc(C)ccc3c2=O)c1 -1.92%, CCOC(=O)N1CCc2c(sc3c2C(=O)NC(c2cc(OC)c(O)c(OC)c2)N3)C1 (stereo unspecified) -12.6%, CCCN(CCC)CCCNC(=O)Cn1cc2c(n1)-c1c(oc(C(=O)N3CCCC3)c1C)CC2 1.5%, Cc1ccc(C(=O)c2oc3ccccc3c2NC(=O)COc2ccccc2Cl)cc1 -12.5%, COc1cccc(NC(=O)Cn2c(=O)n(CCc3ccccc3)c(=O)c3c4c(sc32)CN(C(C)=O)CC4)c1 -10.4%, CCOC(=O)c1cc2c(=O)n3ccccc3nc2n(CC2CCCO2)c1=NC(=O)c1ccc(OC)cc1OC (stereo unspecified) -1.34%, CCOc1ccc(NC(=O)NCc2ccc3c(c2)CCN3C(C)=O)cc1 0%, Cc1cc(C)n(-c2nc3ccccc3nc2N2CCN(c3cccc(C)c3C)CC2)n1 3.12%, CCOc1ccc(C(=O)Nc2ccc(-c3nc4cc(C(C)C)ccc4o3)cc2)cc1Cl -0.498%, COc1ccc(C2=NN(CC(=O)NCc3ccccc3Cl)C(=O)CC2)cc1 -7.52%, Cc1ccc(CCNC(=O)c2c(C)oc3ncnc(N4CCOCC4)c23)cc1 -10.6%, Fc1cccc(NCc2cccn2-c2nnc(N3CCOCC3)s2)c1 -3.09%, Cc1ccc(NCc2cccn2-c2nnc(N3CCC(C(=O)NCCc4ccccc4)CC3)s2)cc1 -2.62%, COc1cccc(CNC(=O)N2CCC(CN3CCC(C)CC3)CC2)c1 -1.51%, COc1ccc(NC(=O)CSc2nc(-c3ccc(OC)cc3)[nH]c2-c2ccc(F)cc2)cc1 -1.68%, CN(C)c1ccc(CNC(=O)CCC(=O)N2Cc3ccccc3Oc3ncccc32)cc1 -4.87%, COc1ccccc1NC(=O)c1ccccc1NC(=O)c1ccccc1 -7.84%, COc1ccc(-c2c3c(nc4sc(C(=O)Nc5ccc(Cl)cc5)c(N)c24)CC(C)(C)CC3=O)cc1 -13.3%, Cc1ccc(CN(C(=O)COc2ccc(C(C)(C)C)cc2)C2CCS(=O)(=O)C2)o1 (stereo unspecified) -3.39%, CCOc1ccccc1NC(=O)CN(CCc1ccccc1)S(=O)(=O)c1ccc(C)cc1 16.3%, Cn1nnc2c(N3CCCCC3)ncnc21 0.671%, COCCc1nn2c(=O)cc(COC(=O)c3cccs3)nc2s1 -2.66%, Clc1ccc(CNc2nc3ccccc3c3nc(-c4cccnc4)nn23)cc1 -9.42%, CCn1ccc2cc(S(=O)(=O)N3CCC(C(=O)NCCc4ccc(SC)cc4)CC3)ccc21 4.9%, CCc1cccc(C)c1NC(=O)CN1C(=O)c2c(c3ccccc3n2C)C1c1ccc(OC)cc1 (stereo unspecified) -22%, CCCCN(C)C(=O)CN1C(=O)CCn2nc(-c3cn(C)c4ccccc34)cc21 0.781%, COc1cccc(CCNC(=O)c2c(O)nc3cc(C)ccn3c2=O)c1 -0.0847%, COCCCNC(=O)Nc1cc(C(=O)NCc2ccc(OC)cc2)ccc1N1CCCC1 22.5%, CCc1ccccc1NC(=O)C(NS(=O)(=O)c1ccc2c(c1)CCC(=O)N2)c1ccccc1 (stereo unspecified) -0.693%, O=c1cc(-c2ccccc2)n2c(SCc3ccc([N+](=O)[O-])cc3)nnc2[nH]1 0.305%, COC(=O)c1ccccc1NC(=O)c1ccc2c(c1)CCN2S(=O)(=O)c1ccc(C)cc1 -7.44%, CC1=C(C(N)=O)C(c2cccc(F)c2)n2nc(SCc3ccccc3)nc2N1 (stereo unspecified) 0.928%, O=C(O)Cn1nc(N2CCN(c3ccc(F)cc3)CC2)ccc1=O -6.05%, COc1ccccc1CNC(=O)c1cc(Sc2cccc(Cl)c2)nc2ccccc12 -22%, COc1cc(OC)c(NC(=O)C2=C(C)C(=O)OC23CCCCC3)cc1Cl 0.337%, CCc1ccc(C(=O)c2cnc3ccc(C)cc3c2S(=O)(=O)c2ccc(OC)cc2)cc1 -8.08%, COc1ccc2cc(CNc3ccc(C)cc3)c(=O)n(CC(=O)Nc3ccc(OC)c(Cl)c3)c2c1 -7.3%, CCCCc1ccc(C(=O)Nc2ccc3nc(N(CC)CC)cc(C)c3c2)cc1 0%, O=C(CCCn1c(=O)c2sccc2n(Cc2ccc(F)cc2Cl)c1=O)NCc1ccc2c(c1)OCO2 2.72%
